# Source: the supplement of paper PMC8728848
# The other results are listed elsewhere or left out.
# How the values were obtained:
# Assay in all cases: glycan array binding signal (z-score within array); higher = stronger binding
# Settings in all cases: glycan notation: IUPAC condensed, linker removed
# [1] = target: Neu5Ac(a2-3)Gal(b1-4)GlcNAc(b1-3)Gal(b1-4)[Fuc(a1-3)]GlcNAc
# How it was run: (§1)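 Glycan array binding is given as a within-array Z-score, which can be read as non-binding when negative. The arrays, 3228 of them, came from the Consortium for Functional Glycomics database and were retained only where the protein sequence was available. Z-scores were averaged across arrays of the same protein sequence at different concentrations or buffers and across linkers.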
# [2] = target: Neu5Ac(a2-3)Gal(b1-4)GlcNAc(b1-6)[Gal(b1-3)]GalNAc
# How it was run: as §1
# [3] = target: Neu5Ac(a2-3)Gal(b1-4)GlcNAc6S
# How it was run: as §1
# [4] = target: Neu5Ac(a2-3)Gal(b1-4)[Fuc(a1-3)]GlcNAc
# How it was run: as §1
# [5] = target: Neu5Ac(a2-3)Gal(b1-4)[Fuc(a1-3)]GlcNAc(b1-3)Gal
# How it was run: as §1
# [6] = target: Neu5Ac(a2-3)Gal(b1-4)[Fuc(a1-3)]GlcNAc(b1-3)Gal(b1-4)GlcNAc
# How it was run: as §1
# [7] = target: Neu5Ac(a2-3)Gal(b1-4)[Fuc(a1-3)]GlcNAc(b1-3)Gal(b1-4)[Fuc(a1-3)]GlcNAc(b1-3)Gal(b1-4)[Fuc(a1-3)]GlcNAc
# How it was run: as §1
# [8] = target: Neu5Ac(a2-3)Gal(b1-4)[Fuc(a1-3)]GlcNAc6S
# How it was run: as §1
# [9] = target: Neu5Ac(a2-3)Gal6S(b1-4)GlcNAc
# How it was run: as §1
# [10] = target: Neu5Ac(a2-3)Gal6S(b1-4)[Fuc(a1-3)]GlcNAc
# How it was run: as §1
# [11] = target: Neu5Ac(a2-3)GalNAc
# How it was run: as §1
# [12] = target: Neu5Ac(a2-3)GalNAc(b1-4)GlcNAc
# How it was run: as §1
# [13] = target: Neu5Ac(a2-3)[GalNAc(b1-4)]Gal(b1-4)Glc
# How it was run: as §1
# [14] = target: Neu5Ac(a2-3)[GalNAc(b1-4)]Gal(b1-4)GlcNAc
# How it was run: as §1
# [15] = target: Neu5Ac(a2-3)[Neu5Ac(a2-6)]GalNAc
# How it was run: as §1
# [16] = target: Neu5Ac(a2-6)Gal(b1-4)GlcNAc
# How it was run: as §1
# [17] = target: Neu5Ac(a2-6)Gal(b1-4)GlcNAc(b1-2)Man(a1-3)[Neu5Ac(a2-6)Gal(b1-4)GlcNAc(b1-2)Man(a1-6)]Man(b1-4)GlcNAc(b1-4)GlcNAc
# How it was run: as §1
# [18] = target: Neu5Ac(a2-6)Gal(b1-4)GlcNAc(b1-3)Gal(b1-4)GlcNAc
# How it was run: as §1
# [19] = target: Neu5Ac(a2-6)Gal(b1-4)GlcNAc(b1-3)Gal(b1-4)[Fuc(a1-3)]GlcNAc(b1-3)Gal(b1-4)[Fuc(a1-3)]GlcNAc
# How it was run: as §1
# [20] = target: Neu5Ac(a2-6)Gal(b1-4)GlcNAc6S
# How it was run: as §1
# [21] = target: Neu5Ac(a2-6)GalNAc
# How it was run: as §1
# [22] = target: Neu5Ac(a2-6)GalNAc(b1-4)GlcNAc
# How it was run: as §1
# [23] = target: Neu5Ac(a2-8)Neu5Ac
# How it was run: as §1
# [24] = target: Neu5Ac(a2-8)Neu5Ac(a2-3)Gal(b1-4)Glc
# How it was run: as §1
# [25] = target: Neu5Ac(a2-8)Neu5Ac(a2-3)[GalNAc(b1-4)]Gal(b1-4)Glc
# How it was run: as §1
# [26] = target: Neu5Ac(a2-8)Neu5Ac(a2-8)Neu5Ac
# How it was run: as §1
# [27] = target: Neu5Ac(a2-8)Neu5Ac(a2-8)Neu5Ac(a2-3)Gal(b1-4)Glc
# How it was run: as §1
# [28] = target: Neu5Ac(a2-8)Neu5Ac(a2-8)Neu5Ac(a2-3)[GalNAc(b1-4)]Gal(b1-4)Glc
# How it was run: as §1
# [29] = target: Neu5Ac(a2-8)Neu5Ac(a2-8)Neu5Ac(a2-8)Neu5Ac(a2-3)[GalNAc(b1-4)]Gal(b1-4)Glc
# How it was run: as §1
# [30] = target: Neu5Ac9Ac(a2-6)Gal(b1-4)GlcNAc
# How it was run: as §1
# [31] = target: Neu5Gc(a2-3)Gal(b1-3)GlcNAc
# How it was run: as §1
# [32] = target: Neu5Gc(a2-3)Gal(b1-3)[Fuc(a1-4)]GlcNAc
# How it was run: as §1
# [33] = target: Neu5Gc(a2-3)Gal(b1-4)Glc
# How it was run: as §1
# [34] = target: Neu5Gc(a2-3)Gal(b1-4)GlcNAc
# How it was run: as §1
# [35] = target: Neu5Gc(a2-3)Gal(b1-4)[Fuc(a1-4)]GlcNAc
# How it was run: as §1
# [36] = target: Neu5Gc(a2-6)Gal(b1-4)GlcNAc
# How it was run: as §1
# [37] = target: Neu5Gc(a2-6)GalNAc
# How it was run: as §1
binder,measurement,setting,value
STA (Solanum tuberosum) (protein) NASAPLPYPQCGLKKGGGKCIKTGECCSIWGWCGTTSDYCAPGYCQKQCPGPYPQGRCGWQANGKSCPTGTGQCCSNAGWCGTTSDYCAPNNCQSQCKLPPPPPSPPPPPPSPPPPSPPPPPPSPPPPSPSPPPPPPSPPPPSPPPPSPPPPSPPPPPSPSPPPPPPSPPPPPPPLPYPQCGMKKGGGKCIKTGECCSIWGWCGTTSKYCSPGYCQMQCPDPYPEGRCGWQANGKSCPTGTGQCCSNAGWCGTTSAYCAPVNCQAQCNTTTLTSPIKNRMRGIESFMLNVV,glycan array binding signal (z-score),[1],-0.507
same,glycan array binding signal (z-score),[2],-0.504
same,glycan array binding signal (z-score),[3],3.23
same,glycan array binding signal (z-score),[4],-0.503
same,glycan array binding signal (z-score),[5],-0.509
same,glycan array binding signal (z-score),[6],-0.144
same,glycan array binding signal (z-score),[7],-0.505
same,glycan array binding signal (z-score),[8],-0.49
same,glycan array binding signal (z-score),[9],-0.493
same,glycan array binding signal (z-score),[10],-0.495
same,glycan array binding signal (z-score),[11],-0.505
same,glycan array binding signal (z-score),[12],1.35
same,glycan array binding signal (z-score),[13],-0.51
same,glycan array binding signal (z-score),[14],0.037
same,glycan array binding signal (z-score),[15],-0.506
same,glycan array binding signal (z-score),[16],-0.502
same,glycan array binding signal (z-score),[17],-0.5
same,glycan array binding signal (z-score),[18],0.912
same,glycan array binding signal (z-score),[19],-0.514
same,glycan array binding signal (z-score),[20],-0.498
same,glycan array binding signal (z-score),[21],-0.494
same,glycan array binding signal (z-score),[22],2.46
same,glycan array binding signal (z-score),[23],-0.505
same,glycan array binding signal (z-score),[24],-0.496
same,glycan array binding signal (z-score),[25],-0.506
same,glycan array binding signal (z-score),[26],-0.508
same,glycan array binding signal (z-score),[27],-0.5
same,glycan array binding signal (z-score),[28],-0.512
same,glycan array binding signal (z-score),[29],-0.501
same,glycan array binding signal (z-score),[30],-0.498
same,glycan array binding signal (z-score),[31],-0.508
same,glycan array binding signal (z-score),[32],-0.511
same,glycan array binding signal (z-score),[33],-0.507
same,glycan array binding signal (z-score),[34],1.47
same,glycan array binding signal (z-score),[35],-0.501
same,glycan array binding signal (z-score),[36],-0.508
same,glycan array binding signal (z-score),[37],-0.514
